Hit rate of the full screen: of about 310,000 compounds, about 14,000 (4.5%) showed an effect of 50% or more. Effects have a minus sign here. Some of the results follow.
target: human ether-à-go-go-related gene (hERG) potassium channel (human, UniProt Q12809); test: primary screen, population patch clamp on CHO cells stably expressing hERG
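Note: peak tail current of the secondary pulse compared with the same well before compound.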

Chain of human ether-à-go-go-related gene (hERG) potassium channel (Q12809 whole entry, looked up): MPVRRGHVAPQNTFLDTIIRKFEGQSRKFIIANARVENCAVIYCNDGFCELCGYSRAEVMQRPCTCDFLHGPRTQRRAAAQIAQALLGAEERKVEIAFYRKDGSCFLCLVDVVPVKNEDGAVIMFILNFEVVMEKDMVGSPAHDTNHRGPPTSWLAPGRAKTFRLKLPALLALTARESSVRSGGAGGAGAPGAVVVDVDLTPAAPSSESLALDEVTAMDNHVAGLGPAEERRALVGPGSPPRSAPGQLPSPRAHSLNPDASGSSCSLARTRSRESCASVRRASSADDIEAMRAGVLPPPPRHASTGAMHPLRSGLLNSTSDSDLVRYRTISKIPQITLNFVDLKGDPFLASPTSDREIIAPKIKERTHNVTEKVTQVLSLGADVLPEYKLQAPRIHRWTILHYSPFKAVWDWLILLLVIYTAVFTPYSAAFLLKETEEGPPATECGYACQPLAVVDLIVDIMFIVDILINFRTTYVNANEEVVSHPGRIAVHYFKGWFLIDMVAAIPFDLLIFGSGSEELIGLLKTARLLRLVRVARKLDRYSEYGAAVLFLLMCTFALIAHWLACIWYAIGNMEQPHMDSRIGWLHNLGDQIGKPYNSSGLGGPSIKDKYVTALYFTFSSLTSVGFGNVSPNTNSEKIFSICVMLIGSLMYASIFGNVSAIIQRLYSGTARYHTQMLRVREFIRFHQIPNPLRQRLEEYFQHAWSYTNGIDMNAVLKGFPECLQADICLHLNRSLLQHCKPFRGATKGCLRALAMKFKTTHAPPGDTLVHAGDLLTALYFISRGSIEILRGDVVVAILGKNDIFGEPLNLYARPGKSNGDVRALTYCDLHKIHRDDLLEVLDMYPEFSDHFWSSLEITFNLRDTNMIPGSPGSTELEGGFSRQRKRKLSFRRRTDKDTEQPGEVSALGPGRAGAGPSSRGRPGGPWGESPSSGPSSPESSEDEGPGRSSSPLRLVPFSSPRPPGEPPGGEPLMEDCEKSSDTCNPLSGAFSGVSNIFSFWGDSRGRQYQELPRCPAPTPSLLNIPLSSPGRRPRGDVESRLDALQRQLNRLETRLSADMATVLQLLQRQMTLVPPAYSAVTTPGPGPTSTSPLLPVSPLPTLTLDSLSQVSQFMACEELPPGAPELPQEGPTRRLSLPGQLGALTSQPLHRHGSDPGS

Compound | hERG current change (%, negative = inhibition) at 10uM
C/C(=N\NC(=S)NC(C)C)c1ccc2c(c1)OCCO2 | -63.6%
COc1ccc(-n2cnnc2SCC(=O)NCc2cccs2)cc1 | -10.1%
O=C(N1CCCCCC1)N1CCN(S(=O)(=O)N2CCCCC2)CC1 | -4.84%
Cc1ccsc1C(=O)NCC(=O)OCc1ccccc1 | 1.22%
COC(=O)c1c(C(=O)OC)c2n(c1C)Cc1ccccc1C2 | -11.2%
NS(=O)(=O)c1cccc(C(=O)NC2CCSc3ccccc32)c1 (stereo not drawn) | 7.91%
O=C(NNC(=O)c1sc2ccccc2c1Cl)Nc1ccc(Cl)cc1 | -8.47%
Nn1c(SCC(=O)Nc2ccccc2F)nnc1-c1cccs1 | -65.7%
CC(Nc1ccc2c(c1)OCCO2)C(=O)N1c2ccccc2CC1C (stereo not drawn) | -3.16%
COC(=O)c1cc(NS(=O)(=O)c2ccc(C(C)C)cc2)ccc1N1CCOCC1 | -24.9%
Cl.OC(c1cc(C(F)(F)F)nc2c(C(F)(F)F)cccc12)C1CCCCN1 (stereo not drawn) | -12.4%
O=C(NC1CCN(Cc2ccccc2)CC1)c1cn(-c2ccccc2)nc1-c1cccnc1 | -68%
Cn1cc(CN2CCN(CCc3ccccc3)C(CCO)C2)cn1 (stereo not drawn) | 4.52%
CSc1cccc(NC(=O)C(C)C)c1 | 8.44%
O=c1[nH]c(-c2ccccn2)nc2ccccc12 | -3.46%
CCCc1c(C)c2ccc(OCC(C)=O)cc2oc1=O | -12%
CC(Sc1nnc(-c2ccc(OC(F)F)cc2)n1N)C(=O)NCC1CCCO1 (stereo not drawn) | -24.2%
O=C(c1ccc([N+](=O)[O-])cc1)N1CCN(C(=O)c2ccco2)CC1 | -47.4%
CN(C)c1ccc(-c2noc(C3CCN(S(=O)(=O)c4cccc(Cl)c4)CC3)n2)cc1 | 13%

Compound | hERG current change (%, negative = inhibition) at 10uM
CCCc1nnc(NC(=O)CCC(=O)N2CCN(Cc3cc(F)ccc3OC)CC2)s1 | -11.3%
COc1cc([C@@H]2c3cc4c(cc3[C@@H](OC)[C@H]3COC(=O)[C@H]23)OCO4)cc(OC)c1O | 9.75%
Cc1ccc(NC(=O)CSc2nc3ccccc3c3nc4ccccc4n23)cc1 | 7.99%
O=C(Nc1ccc(S(=O)(=O)Nc2ncccn2)cc1)c1cccc(Br)c1 | 16.5%
CCOC(=O)c1sc(NC(=O)CSc2nnc(C)s2)c(C(=O)OCC)c1C | -13.2%
COc1ccc([N+](=O)[O-])cc1NCc1ccccc1C | -7.14%
CC(=O)Oc1cccc(C(=O)Nc2cccc(C(=O)Nc3ccccc3C(=O)O)c2)c1 | 13.7%
Clc1ccc(-c2nnc3ccccn23)cc1 | -17.9%
CCOc1cc(C(=O)Nc2nnc(S(=O)(=O)N3CCOCC3)s2)cc(OCC)c1OCC | 12.3%
CCCCN(CCCC)c1nc(OC)nc(-n2nnc(C(C)=O)c2C)n1 | -33.5%
Cc1c(C)n(CC(O)CN2C(=O)c3ccccc3S2(=O)=O)c2ccccc12 (stereo not drawn) | 3.51%
Cc1cc(NC(=O)c2ccc3c(c2)OCO3)no1 | 22.6%
CCN(CC(=O)NCc1ccc(F)cc1)C(=O)CN1CCN(c2cc(Cl)ccc2C)CC1 | -73.1%
Cc1nc([N+](=O)[O-])c(Br)n1CC(=O)c1cccc([N+](=O)[O-])c1 | -34.3%
N#Cc1c(-c2ccccc2)nc(N2CCCCCC2)[nH]c1=O | 1.47%
N#CCSCC(=O)Nc1ccccc1 | 7.73%
C=CCC(=O)OCC(=O)Nc1ccc(Cl)cn1 | -0.252%
NC(=O)CC(NC(=O)c1cccc(Br)c1)c1ccc(NC2CCC2)c([N+](=O)[O-])c1 (stereo not drawn) | -59.8%
CCOC(=O)c1ccccc1NC(=O)COC(=O)CSCC(=O)Nc1cc(C)on1 | -7.39%

Compound | hERG current change (%, negative = inhibition) at 10uM
COc1ccc(-c2noc(CSc3nnc(Cc4ccccc4)n3-c3ccc(Cl)cc3)n2)cc1 | 3.09%
COc1cccc(/C=C2\N=C(C3CCCCC3)OC2=O)c1OC | 0.531%
Cc1ccccc1C(=O)Nc1ccc2c(c1)C(=O)NC2=O | 8.29%
CCC(=O)N1CCN(c2ccc(NC(=O)c3ccc(N4CCOCC4)c([N+](=O)[O-])c3)cc2)CC1 | 5.66%
O=C(Nc1ccncc1)Nc1cc(Cl)ccc1Cl | 19.1%
Cc1ccc(S(=O)(=O)N(C(=O)c2ccncc2)c2ccc(OC(=O)c3ccncc3)c3ccccc23)cc1 | -4.48%
CCCC1=Nc2cc(C(=O)NCCCOC(C)C)ccc2Sc2ccccc21 | -0.286%
CSc1nc(-c2ccccc2F)c(C#N)c(=O)n1C | -35.3%
O=C(N/N=C/C1CC2C=CC1C2)c1ccccc1O (stereo not drawn) | 0.131%
Cn1c(CSc2ncccn2)nnc1SCC(=O)N1CCCC1 | 28.7%
CC(=O)N1CCN(C(=O)c2cc(-c3ccc(C)o3)nc3ccccc23)CC1 | -10.1%
COc1cc2ccccc2cc1C(=O)N1CCCC1 | 7.7%
COc1ccc(C)cc1NC(=O)C(Sc1nncn1C)c1ccccc1 (stereo not drawn) | -3.91%
COc1ccc(NC2CCCN(C(=O)CCCn3cncn3)C2)cc1 (stereo not drawn) | 9.05%
COc1ccccc1NC1(C#N)CCCCC1 | 12.8%
O=C(CCNC(=O)c1ccccc1Cl)NCCc1ccc(Cl)cc1 | -5.19%
O=C(N/N=C/c1ccc2c(c1)OCO2)c1ccc(NC(=O)c2ccc(F)cc2)cc1 | 12.5%
Cc1cc(OCC(=O)NCCc2ccc(S(N)(=O)=O)cc2)c2c(C)cc(=O)oc2c1 | 16.5%
Cn1c2ccccc2c2nnc(SCC(=O)Nc3ccccc3F)nc21 | -12.5%
